Laboratory results: the antibiotic and cytotoxicity screens of Wong et al. (2023)
This is one part of the list.

What was measured:
HSkMC = human skeletal muscle cells; test: cytotoxicity call (relative viability < 0.9); conditions: 10 µM
HepG2 = test: cytotoxicity call (relative viability < 0.9); conditions: 10 µM
S. aureus RN4220 = test: growth inhibition call (relative growth <= 0.2); conditions: 50 µM

COc1ccc(C#Cc2ccc3c(c2)[C@]2(C(=O)N3)[C@H](c3ccccc3OCCO)N3[C@H](c4ccccc4)[C@H](c4ccccc4)OC(=O)[C@H]3[C@@H]2C(=O)O)cc1
inactive: cytotoxicity call (HSkMC) | cytotoxicity call (HepG2) | growth inhibition call (S. aureus RN4220)

C[C@@H]1CCCCO[C@@H](CN(C)C(=O)CCC(F)(F)F)[C@H](C)CN([C@H](C)CO)C(=O)c2cc(NS(=O)(=O)c3ccccc3)ccc2O1
inactive: cytotoxicity call (HSkMC) | cytotoxicity call (HepG2) | growth inhibition call (S. aureus RN4220)

CO[C@H]1[C@H](O)[C@@H](O)[C@H](O)[C@H](O)[C@@H]1O
inactive: cytotoxicity call (HSkMC) | cytotoxicity call (HepG2) | growth inhibition call (S. aureus RN4220)

O=C(CCC1CCCC1)N1CCCC1
inactive: cytotoxicity call (HSkMC) | cytotoxicity call (HepG2) | growth inhibition call (S. aureus RN4220)

CN(C)CCCNC(=O)C[C@H]1CC[C@H]2[C@H](COc3ccc(NC(=O)c4ccccc4F)cc3C(=O)N2C)O1
inactive: cytotoxicity call (HSkMC) | cytotoxicity call (HepG2) | growth inhibition call (S. aureus RN4220)

C[C@H]1CN([C@@H](C)CO)C(=O)c2cc(NC(=O)C3CC3)ccc2O[C@@H]1CN(C)C(=O)Nc1ccc2c(c1)OCO2
inactive: cytotoxicity call (HSkMC) | cytotoxicity call (HepG2) | growth inhibition call (S. aureus RN4220)

COc1ccc(NC(=O)Nc2ccc3c(c2)C(=O)N([C@H](C)CO)C[C@H](C)[C@H](CN(C)Cc2ccc(C(=O)O)cc2)OCCCC[C@H](C)O3)cc1
inactive: cytotoxicity call (HSkMC) | cytotoxicity call (HepG2) | growth inhibition call (S. aureus RN4220)

Cc1noc(C)c1NC(=O)N(C)C[C@@H]1OCCCC[C@H](C)Oc2ccc(NC(=O)NC3CCCCC3)cc2C(=O)N([C@H](C)CO)C[C@H]1C
inactive: cytotoxicity call (HSkMC) | cytotoxicity call (HepG2) | growth inhibition call (S. aureus RN4220)

Cc1noc(C)c1S(=O)(=O)Nc1ccc2c(c1)C(=O)N([C@@H](C)CO)C[C@@H](C)[C@H](CN(C)Cc1ccc3c(c1)OCO3)O2
inactive: cytotoxicity call (HSkMC) | cytotoxicity call (HepG2) | growth inhibition call (S. aureus RN4220)
